Each structure is given as a SMILES string.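 96-well plates; 48 h exposure; 5 concentrations. Endpoints by linear interpolation between flanking doses. Not reached: highest tested concentration assigned. TGI: total growth inhibition.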 Some entries of the source have several records that differ or are many. This is not the full list of results. The source may hold further records. For part of these data: The tests behind the records often covered other concentration ranges, which the source does not state; some values may only mark the edge of a range. For part of these data: The records of an entry are repeats in other runs, samples, wells, individuals or studies. Records carry a tag for their origin. Letters count within one entry.

Assay in all cases: NCI anticancer screen, dose series, 48 h
Assay [1] concerns SNB-19 CNS.
Assay [2] has as its system SF-295 CNS.
Assay [3] has as its system CCRF-CEM leukemia.
Assay [4] has as its system NCI-H460 lung.
For assay [5], the system named is HL-60(TB) leukemia.
Assay [6] concerns HCC-2998 colon.
Assay [7] deals with MALME-3M melanoma.
In assay [8] the test system is OVCAR-8 ovarian.
Assay [9] relates to 786-0 renal.
In assay [10] the test system is MOLT-4 leukemia.
The subject of assay [11] is T-47D breast.
For assay [12], the system named is ACHN renal.
For assay [13], the system named is NCI/ADR-RES ovarian.
Assay [14] concerns M14 melanoma.

For `COc1cc2c(c(OC)c1OC)-c1ccc(SC)c(=O)cc1[C@@H](NC(=O)c1ccc(F)cc1)CC2`, the TGI in assay [1] was 62.8 nM and 16.3 µM; in assay [2], 69.5 nM and 22.5 µM.

For the molecule `C=C1C(=O)C23CC1CCC2C12CO[C@@]3(O)[C@@H](O)C1C(C)(C)C=CC2=O` (stereo partly drawn), the TGI in [3] is 2.29 µM and > 100 µM; in assay [1], 4.92 µM and 56.7 µM; in assay [4] it was 1.46 µM and 30 µM; in assay [5] it was 1.18 µM and > 100 µM; in assay [6], 2.89 µM and 40.1 µM; in assay [7] it was 1.41 µM and 25.7 µM. In addition, in [8], the TGI is 653 nM and 14.4 µM.

For `CCCC(=O)Nc1cn(COC)c(C(=O)N2C[C@H]3C[C@@]34C2=CC(=O)c2[nH]cc(C)c24)n1`, the TGI in [3] was 3.37 µM and > 100 µM; in [5], 4.52 µM and > 100 µM; in assay [9], 50 µM and 4.65 µM; in [10], 2.79 µM and > 100 µM.

Take `O=C(CCl)Nc1ccc(C(=O)N/N=C/c2ccc(Cl)cc2)cc1`: the TGI in assay [11] is 6.83 µM and 438 nM.

`Oc1cccc(-c2nc(N3CCOCC3)c3oc4ncccc4c3n2)c1`: the TGI is 1.22 µM [sample A, 1 test] and > 100 µM [sample B, mean of 2 tests] in [5]; 4.11 µM [sample A, mean of 2 tests] and > 100 µM [sample B, 1 test] in assay [12]; 2.83 µM [sample A, 1 test] and > 37.8 µM [sample B, mean of 2 tests] in assay [13]; 3.09 µM [sample A, mean of 2 tests] and > 100 µM [sample B, 1 test] in [14].

Source of the values: PubChem BioAssay (NCI).
